# Assay results as given in the supplement of paper PMC8728848.
# Some of the results follow.
# Assays:
# Assay in all cases: glycan array binding signal (z-score within array); higher = stronger binding
# Details in all cases: glycan notation: IUPAC condensed, linker removed
# Glc(a1-4)Glc = target: Glc(a1-4)Glc
# Method in brief: (§1)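 Glycan array data were curated from 3228 arrays in the Consortium for Functional Glycomics database and kept only where the protein sequence was available. Glycan names were converted to IUPAC-condensed notation, and columns mapping to the same glycan were averaged. The binding signal is a within-array Z-score, averaged across arrays of the same protein sequence at different concentrations or buffers and across linkers. Negative Z-scores can be read as non-binding.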
# [1] = target: Glc(a1-4)Glc(a1-4)Glc(a1-4)Glc
# Method in brief: as §1
# Glc(a1-6)Glc(a1-6)Glc = target: Glc(a1-6)Glc(a1-6)Glc
# Method in brief: as §1
# [2] = target: Glc(a1-6)Glc(a1-6)Glc(a1-6)Glc
# Method in brief: as §1
# Glc(b1-4)Glc = target: Glc(b1-4)Glc
# Method in brief: as §1
# Glc(b1-6)Glc = target: Glc(b1-6)Glc
# Method in brief: as §1
# GlcA(b1-3)Gal = target: GlcA(b1-3)Gal
# Method in brief: as §1
# GlcA(b1-3)GlcNAc = target: GlcA(b1-3)GlcNAc
# Method in brief: as §1
# GlcA(b1-6)Gal = target: GlcA(b1-6)Gal
# Method in brief: as §1
# [3] = target: GlcNAc(a1-3)Gal(b1-4)GlcNAc
# Method in brief: as §1
# [4] = target: GlcNAc(a1-4)Gal(b1-3)GlcNAc
# Method in brief: as §1
# [5] = target: GlcNAc(a1-4)Gal(b1-4)GalNAc
# Method in brief: as §1
# [6] = target: GlcNAc(a1-4)Gal(b1-4)GlcNAc
# Method in brief: as §1
# [7] = target: GlcNAc(a1-4)Gal(b1-4)GlcNAc(b1-3)Gal(b1-4)Glc
# Method in brief: as §1
# [8] = target: GlcNAc(a1-4)Gal(b1-4)GlcNAc(b1-3)Gal(b1-4)GlcNAc
# Method in brief: as §1
# [9] = target: GlcNAc(a1-4)Gal(b1-4)GlcNAc(b1-3)Gal(b1-4)GlcNAc(b1-3)Gal(b1-4)GlcNAc
# Method in brief: as §1
# [10] = target: GlcNAc(a1-4)Gal(b1-4)GlcNAc(b1-3)Gal(b1-4)[Fuc(a1-3)]GlcNAc(b1-3)Gal(b1-4)[Fuc(a1-3)]GlcNAc
# Method in brief: as §1
# [11] = target: GlcNAc(a1-6)Gal(b1-4)GlcNAc
# Method in brief: as §1
# [12] = target: GlcNAc(b1-2)Gal(b1-3)GalNAc
# Method in brief: as §1
# [13] = target: GlcNAc(b1-2)Man(a1-3)[GlcNAc(b1-2)Man(a1-6)]Man(b1-4)GlcNAc(b1-4)GlcNAc
# Method in brief: as §1
# [14] = target: GlcNAc(b1-2)Man(a1-3)[GlcNAc(b1-2)Man(a1-6)]Man(b1-4)GlcNAc(b1-4)[Fuc(a1-6)]GlcNAc
# Method in brief: as §1
# [15] = target: GlcNAc(b1-2)Man(a1-3)[GlcNAc(b1-4)][GlcNAc(b1-2)Man(a1-6)]Man(b1-4)GlcNAc(b1-4)GlcNAc
# Method in brief: as §1
# [16] = target: GlcNAc(b1-2)[GlcNAc(b1-4)]Man(a1-3)[GlcNAc(b1-2)Man(a1-6)]Man(b1-4)GlcNAc(b1-4)GlcNAc
# Method in brief: as §1
# [17] = target: GlcNAc(b1-2)[GlcNAc(b1-4)]Man(a1-3)[GlcNAc(b1-4)][GlcNAc(b1-2)Man(a1-6)]Man(b1-4)GlcNAc(b1-4)GlcNAc
# Method in brief: as §1
# [18] = target: GlcNAc(b1-2)[GlcNAc(b1-4)]Man(a1-3)[GlcNAc(b1-4)][GlcNAc(b1-2)[GlcNAc(b1-6)]Man(a1-6)]Man(b1-4)GlcNAc(b1-4)GlcNAc
# Method in brief: as §1
# [19] = target: GlcNAc(b1-2)[GlcNAc(b1-4)]Man(a1-3)[GlcNAc(b1-4)][GlcNAc(b1-2)[GlcNAc(b1-6)]Man(a1-6)]Man(b1-4)GlcNAc(b1-4)[Fuc(a1-6)]GlcNAc
# Method in brief: as §1
# [20] = target: GlcNAc(b1-2)[GlcNAc(b1-6)]Man(a1-6)[GlcNAc(b1-2)Man(a1-3)]Man(b1-4)GlcNAc(b1-4)GlcNAc
# Method in brief: as §1
# [21] = target: GlcNAc(b1-2)[GlcNAc(b1-6)]Man(a1-6)[GlcNAc(b1-2)Man(a1-3)]Man(b1-4)GlcNAc(b1-4)[Fuc(a1-6)]GlcNAc
# Method in brief: as §1
# [22] = target: GlcNAc(b1-2)[GlcNAc(b1-6)]Man(a1-6)[GlcNAc(b1-2)Man(a1-3)][GlcNAc(b1-4)]Man(b1-4)GlcNAc(b1-4)GlcNAc
# Method in brief: as §1
# GlcNAc(b1-3)Gal = target: GlcNAc(b1-3)Gal
# Method in brief: as §1
# [23] = target: GlcNAc(b1-3)Gal(b1-3)GalNAc
# Method in brief: as §1
# GlcNAc(b1-3)Gal(b1-4)Glc = target: GlcNAc(b1-3)Gal(b1-4)Glc
# Method in brief: as §1
# [24] = target: GlcNAc(b1-3)Gal(b1-4)GlcNAc
# Method in brief: as §1
# [25] = target: GlcNAc(b1-3)Gal(b1-4)GlcNAc(b1-3)Gal(b1-4)GlcNAc
# Method in brief: as §1
# GlcNAc(b1-3)GalNAc = target: GlcNAc(b1-3)GalNAc
# Method in brief: as §1
# GlcNAc(b1-3)Man = target: GlcNAc(b1-3)Man
# Method in brief: as §1
# [26] = target: GlcNAc(b1-3)[GlcNAc(b1-4)][GlcNAc(b1-6)]GlcNAc
# Method in brief: as §1
# [27] = target: GlcNAc(b1-3)[GlcNAc(b1-6)]Gal(b1-4)GlcNAc
# Method in brief: as §1
# [28] = target: GlcNAc(b1-3)[GlcNAc(b1-6)]GalNAc
# Method in brief: as §1
# [29] = target: GlcNAc(b1-4)Gal(b1-4)GlcNAc
# Method in brief: as §1
# GlcNAc(b1-4)GlcNAc = target: GlcNAc(b1-4)GlcNAc
# Method in brief: as §1
# [30] = target: GlcNAc(b1-4)GlcNAc(b1-4)GlcNAc
# Method in brief: as §1
# [31] = target: GlcNAc(b1-4)GlcNAc(b1-4)GlcNAc(b1-4)GlcNAc(b1-4)GlcNAc
# Method in brief: as §1
# [32] = target: GlcNAc(b1-4)GlcNAc(b1-4)GlcNAc(b1-4)GlcNAc(b1-4)GlcNAc(b1-4)GlcNAc
# Method in brief: as §1
# [33] = target: GlcNAc(b1-4)[GlcNAc(b1-6)]GalNAc
# Method in brief: as §1
binder,measurement,setting,value
CIH1 (Colletotrichum higginsianum) (protein) LPQATPTTPTPTSASAAATISATSSPTCSPGPVIDYTVVSGDTLTIISQRFSSGICNIADASGITNPNFLSLGQVLQVPTYVCTPDNTSCLAKEGSDTCVEGGPATHTIVAGDTFFLVAQSLGLDVNALLAANEGVDPLLLQIGDVINIPVC,glycan array binding signal (z-score),Glc(a1-4)Glc,-0.061
same,glycan array binding signal (z-score),[1],-0.047
same,glycan array binding signal (z-score),Glc(a1-6)Glc(a1-6)Glc,-0.015
same,glycan array binding signal (z-score),[2],-0.064
same,glycan array binding signal (z-score),Glc(b1-4)Glc,-0.046
same,glycan array binding signal (z-score),Glc(b1-6)Glc,-0.076
same,glycan array binding signal (z-score),GlcA(b1-3)Gal,-0.065
same,glycan array binding signal (z-score),GlcA(b1-3)GlcNAc,-0.086
same,glycan array binding signal (z-score),GlcA(b1-6)Gal,-0.073
same,glycan array binding signal (z-score),[3],-0.085
same,glycan array binding signal (z-score),[4],-0.069
same,glycan array binding signal (z-score),[5],-0.052
same,glycan array binding signal (z-score),[6],-0.026
same,glycan array binding signal (z-score),[7],-0.054
same,glycan array binding signal (z-score),[8],-0.069
same,glycan array binding signal (z-score),[9],-0.08
same,glycan array binding signal (z-score),[10],-0.024
same,glycan array binding signal (z-score),[11],-0.042
same,glycan array binding signal (z-score),[12],-0.056
same,glycan array binding signal (z-score),[13],-0.066
same,glycan array binding signal (z-score),[14],-0.06
same,glycan array binding signal (z-score),[15],-0.069
same,glycan array binding signal (z-score),[16],-0.068
same,glycan array binding signal (z-score),[17],-0.065
same,glycan array binding signal (z-score),[18],-0.045
same,glycan array binding signal (z-score),[19],-0.072
same,glycan array binding signal (z-score),[20],-0.013
same,glycan array binding signal (z-score),[21],-0.074
same,glycan array binding signal (z-score),[22],-0.072
same,glycan array binding signal (z-score),GlcNAc(b1-3)Gal,-0.064
same,glycan array binding signal (z-score),[23],-0.064
same,glycan array binding signal (z-score),GlcNAc(b1-3)Gal(b1-4)Glc,-0.077
same,glycan array binding signal (z-score),[24],-0.067
same,glycan array binding signal (z-score),[25],-0.076
same,glycan array binding signal (z-score),GlcNAc(b1-3)GalNAc,-0.063
same,glycan array binding signal (z-score),GlcNAc(b1-3)Man,-0.072
same,glycan array binding signal (z-score),[26],-0.085
same,glycan array binding signal (z-score),[27],-0.044
same,glycan array binding signal (z-score),[28],-0.066
same,glycan array binding signal (z-score),[29],-0.061
same,glycan array binding signal (z-score),GlcNAc(b1-4)GlcNAc,-0.09
same,glycan array binding signal (z-score),[30],2.91
same,glycan array binding signal (z-score),[31],9.28
same,glycan array binding signal (z-score),[32],20
same,glycan array binding signal (z-score),[33],-0.08
